{"source": "PubChem BioAssay AID624418", "about": "(National Center for Advancing Translational Sciences (NCATS), 2012)", "note": "About 530 (0.13%) of roughly 410,000 compounds were called active. This list was built around the results that the source calls inconclusive (neither active nor inactive); the mix of calls is not that of the screen. Calls follow the shape of the dose curve; as a rule, active = well fitted inhibition curve with a large enough effect; inconclusive = small, poorly fitted or top-dose-only effect, or another doubt; inactive = no such curve, though single readings can be large or run the other way. Potencies of inconclusive entries are doubtful fits and often do not repeat.", "data": [{"experiment": "qHTS of GLP-1 Receptor Inverse Agonists: Cytotox Screen; also: potency is read from the fitted curve at half-maximal effect", "conditions": "HEK293 cAMP-luciferase reporter cells, luminescence, 24 h; series mostly up to 38.3 µM", "in_short": "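A 23 nL compound transfer followed 12 hours of cell culture at 37 deg C; exposure then lasted 24 hr. Luciferase assay detection reagent was dispensed and plates read for luminescence after a 12 min room-temperature wait.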", "values": [{"compound": "CN(CC(=O)Nc1ccc(Cl)c(C(F)(F)F)c1)C(=O)C1CC(=O)N(CCc2ccccc2)C1", "note": "(stereo unspecified)", "Potency": "inconclusive: 10 µM [inhibitor, single point]"}, {"compound": "CC(C)c1nnc(NC(=O)c2nc(S(=O)(=O)Cc3ccccc3)ncc2Cl)s1", "Potency": "inactive"}, {"compound": "CCNc1ccc(Br)cc(C(=O)/C=C/c2c(Cl)cccc2Cl)c1=O", "Potency": "inconclusive: 31.6 µM [inhibitor, single point]"}, {"compound": "COc1ccc(C[C@H]2CN3C(=NC[C@H]3Cc3ccccc3)N2CCNC(=O)c2ccc(C)c(Br)c2)cc1", "Potency": "inconclusive: 28.2 µM [inhibitor, single point]"}, {"compound": "C[C@@H]1CCCCO[C@@H](CN(C)Cc2ccc(C(F)(F)F)cc2)[C@@H](C)CN([C@H](C)CO)C(=O)c2cc(N(C)C)ccc2O1", "Potency": "inconclusive: 12.6 µM [inhibitor, single point]"}, {"compound": "NS(=O)(=O)c1ccc(NC2=CC(=O)C(=O)c3ccccc32)cc1", "Potency": "inconclusive: 10 µM [inhibitor, partial curve, poor fit]"}, {"compound": "Cn1c(O)c(/C=C/C=Nc2ccccc2)c(=O)n(C)c1=S", "Potency": "inconclusive: 7.08 µM [inhibitor, partial curve, poor fit]"}, {"compound": "C=C1C(=O)O[C@@H]2C[C@@H](C)[C@@H]3C=CC(=O)[C@@]3(C)[C@@H](O)[C@H]12", "Potency": "inconclusive: 1.78 µM [inhibitor, full curve, poor fit]"}, {"compound": "N#CC1c2ccccc2-n2nncc2CN1Cc1cc(Cl)cc(Cl)c1", "note": "(stereo unspecified)", "Potency": "inconclusive: 11.2 µM [inhibitor, single point]"}, {"compound": "c1ccc(Nc2nc(NCC3CCCO3)c3ccccc3n2)cc1", "note": "(stereo unspecified)", "Potency": "inconclusive: 28.2 µM [inhibitor, single point]"}, {"compound": "CN(C)Cc1c[nH]c2ccc([N+](=O)[O-])cc12", "Potency": "inconclusive: 3.16 µM [inhibitor, partial curve, poor fit]"}, {"compound": "COc1cc(-n2c(=S)[nH]c3ccccc3c2=O)c(Cl)cc1Cl", "Potency": "inconclusive: 12.6 µM [inhibitor, single point]"}, {"compound": "CCOc1ccc(-c2cc(C)[n+](CCO)c(-c3ccc(OCC)cc3)c2)cc1", "Potency": "inactive"}, {"compound": "Cc1ccc(NS(=O)(=O)c2ccc(N3CCN(c4ccc(O)cc4)CC3)c([N+](=O)[O-])c2)c(C)c1", "Potency": "inconclusive: 28.2 µM [inhibitor, single point]"}, {"compound": "CN(CC1COc2ccccc2O1)c1nc(-c2cccnc2)nc2ccccc12", "note": "(stereo unspecified)", "Potency": "inconclusive: 28.2 µM [inhibitor, single point]"}, {"compound": "O=S(=O)(Nc1ccc(N=Nc2ccc(O)c3ccccc23)cc1)c1ccccc1", "Potency": "inconclusive: 22.4 µM [inhibitor, single point]"}, {"compound": "Oc1csc(Cc2nc(-c3ccccc3F)cs2)n1", "Potency": "inconclusive: 28.2 µM [inhibitor, single point]"}, {"compound": "CC(C)[n+]1ccn(C2=C([O-])c3ccccc3C(=O)/C2=N\\S(=O)(=O)c2ccccc2)c1", "Potency": "inconclusive: 28.2 µM [inhibitor, single point]"}, {"compound": "CCC(=NCc1ccc2c(c1)OCO2)c1c(O)n(C2CCCCC2)c(=O)[nH]c1=O", "Potency": "inconclusive: 8.91 µM [inhibitor, partial curve, poor fit]"}, {"compound": "Cc1ccc(Nc2cc(C)nc3ccc(C)cc23)cc1", "Potency": "inconclusive: 22.4 µM [inhibitor, single point]"}, {"compound": "COc1cccc(CN(C)C[C@@H]2OCc3ccccc3-c3c(n(C)c4ccccc34)C(=O)N([C@@H](C)CO)C[C@H]2C)c1", "Potency": "inconclusive: 11.2 µM [inhibitor, single point]"}, {"compound": "Cc1cccc(OCc2n(CC(=O)OC3CC(C)CCC3C(C)C)c3ccccc3[n+]2C)c1", "note": "(stereo unspecified)", "Potency": "inconclusive: 12.6 µM [inhibitor, single point]"}, {"compound": "Cc1cc(C)cc(OCC(O)CN2CCC(CN3C(=O)c4cccc5cccc(c45)C3=O)CC2)c1", "note": "(stereo unspecified)", "Potency": "inconclusive: 28.2 µM [inhibitor, single point]"}, {"compound": "CC[C@]12c3[nH]c4ccc(Cl)cc4c3CCN1C(=O)[C@@H](CC(=O)NCC13CC4CC(CC(C4)C1)C3)C[C@@H]2C(=O)N1CCN(C(=O)c2ccco2)CC1", "Potency": "inconclusive: 11.2 µM [inhibitor, single point]"}, {"compound": "CCOC(=O)[C@]12Cc3cc(C)ccc3[C@H]1N(CCC(=O)OC)C(=O)c1cc(OC)ccc12", "Potency": "inconclusive: 11.2 µM [inhibitor, partial curve]"}, {"compound": "CC(C)(C)c1nc2cc(Cl)c([N+](=O)[O-])cc2o1", "Potency": "inconclusive: 28.2 µM [inhibitor, single point]"}, {"compound": "NNC(=O)c1ccc(Cl)cc1", "Potency": "inconclusive: 25.1 µM [inhibitor, single point]"}, {"compound": "CC1CCN(CCc2nc3cc(NC(=O)COc4ccc([N+](=O)[O-])cc4)ccc3n2C)CC1", "Potency": "inconclusive: 31.6 µM [inhibitor, single point]"}, {"compound": "COP(=O)(OC)/C(C=O)=N/Nc1ccc([N+](=O)[O-])cc1", "Potency": "inconclusive: 14.1 µM [inhibitor, partial curve, poor fit]"}, {"compound": "CC(=O)Nc1ccc(C2Sc3ccccc3NC3=C2C(=O)c2ccccc23)cc1", "note": "(stereo unspecified)", "Potency": "inconclusive: 12.6 µM [inhibitor, single point]"}, {"compound": "CC(N)Cc1cn(Cc2ccccc2)c2ccccc12", "note": "(stereo unspecified)", "Potency": "inconclusive: 22.4 µM [inhibitor, single point]"}, {"compound": "Cc1ccc(O)c(Cc2cc(C)cc(Cc3cc(C)ccc3O)c2O)c1", "Potency": "inconclusive: 28.2 µM [inhibitor, single point]"}, {"compound": "O=C(Nc1ccc(Cl)c(Cl)c1)c1cccc(S(=O)(=O)NCc2cccnc2)c1", "Potency": "inconclusive: 28.2 µM [inhibitor, single point]"}, {"compound": "C[C@H]1CCC/C=C/[C@@H]2C[C@H](O)C[C@H]2[C@H](O)/C=C/C(=O)O1", "Potency": "inconclusive: 0.891 µM [inhibitor, full curve]"}, {"compound": "CCN1C(=O)C(=C2C=C(C)N(Cc3ccco3)C(C)=C2)C(=O)N(CC)C1=S", "Potency": "inactive"}, {"compound": "COc1ccc(-c2nc3ccc(C)cn3c2NCc2ccccc2)cc1SC1CCCCC1", "Potency": "inconclusive: 12.6 µM [inhibitor, single point]"}]}]}
